This is an account of results in the supplement of paper PMC3334620.

Whole data set: some 33,000 sequences, median “E-score (-0.5 to 0.5)” near -0.043, cut for the highest 2% near 0.37. This is one part of the list.

The experiment concerns the target T1, Upc2 (UniProt Q12151).
T1 sequence: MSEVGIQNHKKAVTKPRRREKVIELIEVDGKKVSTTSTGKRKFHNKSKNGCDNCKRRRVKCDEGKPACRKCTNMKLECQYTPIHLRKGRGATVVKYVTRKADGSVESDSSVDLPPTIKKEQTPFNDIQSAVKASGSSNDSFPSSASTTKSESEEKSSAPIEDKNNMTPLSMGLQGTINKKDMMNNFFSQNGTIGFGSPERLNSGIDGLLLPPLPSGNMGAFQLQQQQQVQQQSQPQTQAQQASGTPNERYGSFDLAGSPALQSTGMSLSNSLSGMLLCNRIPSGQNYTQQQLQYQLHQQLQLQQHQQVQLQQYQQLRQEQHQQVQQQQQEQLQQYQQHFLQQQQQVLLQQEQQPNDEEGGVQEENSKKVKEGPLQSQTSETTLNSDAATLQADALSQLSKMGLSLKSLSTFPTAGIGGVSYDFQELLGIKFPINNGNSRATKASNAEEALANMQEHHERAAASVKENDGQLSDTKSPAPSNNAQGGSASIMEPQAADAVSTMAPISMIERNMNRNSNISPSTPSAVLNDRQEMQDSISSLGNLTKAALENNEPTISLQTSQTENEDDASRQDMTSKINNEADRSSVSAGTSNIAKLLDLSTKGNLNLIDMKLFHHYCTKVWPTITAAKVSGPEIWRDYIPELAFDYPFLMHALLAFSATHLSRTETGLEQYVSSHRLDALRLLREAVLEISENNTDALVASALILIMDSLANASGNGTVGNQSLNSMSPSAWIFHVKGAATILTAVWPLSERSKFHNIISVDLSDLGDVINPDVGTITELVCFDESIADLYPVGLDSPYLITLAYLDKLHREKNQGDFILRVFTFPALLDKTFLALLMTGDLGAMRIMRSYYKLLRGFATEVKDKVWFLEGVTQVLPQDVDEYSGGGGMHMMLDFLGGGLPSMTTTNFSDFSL
Kind of experiment: PBM E-score (8-mer binding enrichment) (E-score (-0.5 to 0.5)); higher = stronger / more preferred TF binding; most listed sequences are background and not binding sites. To be noted: protein concentration: 200 nM; construct: GST-full length. The essentials: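 Bound GST-tagged yeast transcription factors, applied at about 100-200 nM to double-stranded universal all-10-mer Agilent arrays, were detected with fluorescent anti-GST. Scans were normalised with masliner. A modified Wilcoxon-Mann-Whitney statistic, the E-score, was assigned to each ungapped eight-base word pooled with its reverse complement by the Universal PBM Analysis Suite.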
Consider TGTCGAAA, for which the “PBM E-score” value is -0.0598. Consider AGTAAGGG, for which the “PBM E-score” value is -0.189. ATCTAGTG: the “PBM E-score” value is -0.00112. With CATCCGTA, the “PBM E-score” value turned out to be 0.309. As to CACACGTG, the “PBM E-score” value is -0.154. As to GAGCACCA, the “PBM E-score” value was -0.0195. In the case of CCGCCAAG, the “PBM E-score” value is -0.0988. With CGCCTGGC, the “PBM E-score” value was -0.106. Regarding ACAAGACG, the “PBM E-score” value is -0.0578. The result for AGGGGTGG reads -0.046; that for GATCAAGC, 0.159; that for CAAGACTG, -0.248. Regarding AAACCGCT, the “PBM E-score” value is 0.0158.

With ACATGGTC, the “PBM E-score” value was -0.122. To CCTGAGCC belongs -0.329.

Turning to AGTTTAAT, the “PBM E-score” value was found to be 0.0342. In the case of TCTTGGCA, the “PBM E-score” value is -0.0579. The result for AATCTAAG reads 0.0399. The result for AAACGAGC reads 0.489; that for ACACGTCT, -0.205; that for ATTCACCA, -0.155. Take CTTGTACA: the “PBM E-score” value was -0.0692. With CTACACCA, the “PBM E-score” value is -0.117.

Take CCAACATC: the “PBM E-score” value is -0.0625.

As for CCCAGAAA, the “PBM E-score” value turned out to be 0.0131.

Take GGGCAAAC: the “PBM E-score” value is -0.0772.

On to TAGCCGGA, for which the “PBM E-score” value was found to be 0.00437.

Take ACGTGTGG: the “PBM E-score” value is -0.22. To CTCGGCAC belongs -0.0884; to CGTTCTGC, 0.234; to ACCAAGCC, -0.167. For the sequence AGTTGTGG, the “PBM E-score” value is -0.0247.

For the sequence AAGGCTAC, the “PBM E-score” value is -0.189. Turning to CCAAGCTA, the “PBM E-score” value is -0.182. In the case of AAATAGAG, the “PBM E-score” value is -0.128. The result for CGGGAACA reads 0.184; that for AACGACAG, 0.419; that for GACGCCAA, -0.0565. For GAAGAGTA, the “PBM E-score” value was determined as 0.0847. In the case of CATTCGTC, the “PBM E-score” value stood at 0.0696. Turning to GGTTGGCA, the “PBM E-score” value is -0.0111. Consider CTAAGTCA, for which the “PBM E-score” value was -0.2. The result for CTACGTGA reads 0.0211; that for CCCAACTA, -0.0803. Consider CCCGAGAG, for which the “PBM E-score” value was -0.0376. Turning to AATTCGCC, the “PBM E-score” value was 0.00468. As to ATAGCTGC, the “PBM E-score” value was -0.0817. For the sequence GCGGGCAA, the “PBM E-score” value was -0.0677. To AGCATATC belongs -0.146; to GCGTTTGA, 0.151; to AATATTGT, 0.0557. To AATCTAAC belongs 0.0176; to TAACCATA, 0.0159.

As to ACTACGTA, the “PBM E-score” value was determined as 0.228.

In the case of ACACCATA, the “PBM E-score” value is 0.139. For CCCATCTA, the “PBM E-score” value was -0.214. With ATGATCCA, the “PBM E-score” value was -0.188. Consider GTAGATGA, for which the “PBM E-score” value turned out to be 0.0175. Regarding TGGATCCA, the “PBM E-score” value was -0.13. For GGCGAAAC, the “PBM E-score” value is -0.0721.

Consider GATCCCAC, for which the “PBM E-score” value is -0.111. In the case of ATTTGCGC, the “PBM E-score” value was 0.024. For the sequence AATCTTAG, the “PBM E-score” value is -0.176.

Consider AGTGTTAT, for which the “PBM E-score” value is -0.032.

With AAAGAGGG, the “PBM E-score” value amounted to 0.038. Consider AGCGCTAC, for which the “PBM E-score” value was determined as 0.0662. As to CTGCCATA, the “PBM E-score” value amounted to 0.0818.

Consider AACCATAC, for which the “PBM E-score” value came to 0.146. For TGACTACA, the “PBM E-score” value was 0.0705. As for CAACTGCG, the “PBM E-score” value is -0.0371.

Turning to CTCCCTCC, the “PBM E-score” value is -0.294. As to GAGCAAAA, the “PBM E-score” value was -0.0717. In the case of CACTACGC, the “PBM E-score” value was -0.169. The result for ATCCAGGA reads -0.263; that for AGATACTA, -0.151. On to AGGCCCTA, for which the “PBM E-score” value is -0.156. Turning to GAACAGCC, the “PBM E-score” value is -0.0262. With ACATTCGG, the “PBM E-score” value was found to be 0.0333.

For CACTTGGA, the “PBM E-score” value is -0.0876. In the case of AGAGTCAC, the “PBM E-score” value is -0.201.

On to ACTAGTAA, for which the “PBM E-score” value is -0.109. On to CAGGTAGG, for which the “PBM E-score” value was -0.18. Consider CGAAAACC, for which the “PBM E-score” value was 0.153. As to AATATTAT, the “PBM E-score” value was -0.0085.

Take CGTTAACC: the “PBM E-score” value came to 0.348.

Turning to GACTGAAA, the “PBM E-score” value came out at 0.031. Turning to AGCCATCA, the “PBM E-score” value is 0.00417. To GAGAAAGA belongs -0.0168; to TCTAGGAA, -0.194; to GGAAGGAA, -0.049. Consider AGTCCCTC, for which the “PBM E-score” value is -0.125. For the sequence ACTCCGTC, the “PBM E-score” value is -0.0313.

Take GCCCGAAC: the “PBM E-score” value came to 0.00648. AGCTAGCC: the “PBM E-score” value was -0.128.

As to CCTCAACC, the “PBM E-score” value was -0.0925.

Turning to CTCTCGGC, the “PBM E-score” value is -0.151. With AAGTGGGA, the “PBM E-score” value is -0.0458. To GGTAGTAC belongs 0.0243. On to GACATCAA, for which the “PBM E-score” value was -0.0575. To CTCCCGCA belongs -0.0644. Consider ACCCACCC, for which the “PBM E-score” value is -0.115. As for AGAAAGCA, the “PBM E-score” value is 5e-05. To TGAAAACA belongs 0.00644; to AACACAAG, -0.0766. Take ACTTGTGA: the “PBM E-score” value was -0.167. On to AAGGTATG, for which the “PBM E-score” value was -0.194. Consider ATTCGAGA, for which the “PBM E-score” value turned out to be 0.0266. As to CAGGCGGC, the “PBM E-score” value is -0.0153.

For the sequence CATATCGA, the “PBM E-score” value is -0.148. To GGTTGGGA belongs -0.0786.
